B1: chrX:69798090:69798091:-_ENSMUSG00000031343_ENSMUST00000055966|mus_mus|mus_mus_mus_hu_False|48_48 (ssRNA)
RNA: GGGAGUUCUACAGUCCGACGAUCAAGUCCCCGGGUUCUUGUCGUCUUGAUUCCCCUUGACCAGUGGUUCCAGGGAGAAUAUUAAUCAGGAGAAGAAUCCCAAGGCUGGUCAUGUAACAGUGACUUGUUUGUGUGAUUAUCAUCCAACAGAGGAUUGAGCAUCA
B2: chrX:102931600:102931601:-_ENSG00000123562_ENST00000441076|hu_mus|FALSE|FALSE (ssRNA)
RNA: GGGAGUUCUACAGUCCGACGAUCGUCCUCCACCAGCCACGGUUUUAAUUCUUCAGGGAUCUUCACCUUCACCUCCAUCCUACUCUUGAAUGCCUCCUCGCUCUCCACAGUGGGGUCAGCCCGUGCCCUUUUCUUCCGAGGGGGCAACAGAGGAUUGAGCAUCA
B3: chr1:229631753:229631754:-_ENSG00000069248_ENST00000261396|hu_hu|motif|central (ssRNA)
RNA: GGGAGUUCUACAGUCCGACGAUCAUGCUUUUCUGAAGAAUCAUCUAAUUCCCAUUUACUGAUGUUUGAACUCGUCAGGCGGUAAAAGCUUGAUCUCUCUCUAUCCCAGAGAACACUUGAAAGUGUGAGAUCACUACUAGGAGACAACAGAGGAUUGAGCAUCA
B4: chr8:117878989:117878990:-_ENSG00000164754_ENST00000297338|hu_hu|hu_hu_hu_mus_True|48_48 (ssRNA)
RNA: GGGAGUUCUACAGUCCGACGAUCCCAGAGGCCCUCGUUUACUGAGGACAAAAUGUGCGUAGAACAUUUUUCUUAUUUGCUAUGAAAACAGAAGAAACCUGGAUCUCGGCGGGGAGCCGGGAGGGGUGGGUGGCCCGGGGAGGGCAACAGAGGAUUGAGCAUCA
B5: chr7:56126341:56126342:+_ENSG00000146731_ENST00000540286|hu_mus|hu_hu_hu_mus_True|18_78 (ssRNA)
RNA: GGGAGUUCUACAGUCCGACGAUCCAUGUUUCUCCUCUUGGCUCUGCGCAGAGCUACUAUGCCUUCUUUCGCAAGGGCAUCUAAGGAAAAGGGGUCAAUCCCCUUUUGAUUAAUAACAACAAAUCCUUUAUCUGAGUCACCACACAACAGAGGAUUGAGCAUCA
B6: chr10:28872372:28872373:+_ENSG00000095787_ENST00000354911|hu_hu|motif|central (ssRNA)
RNA: GGGAGUUCUACAGUCCGACGAUCUGCAUCUGAAGUUUUGCUUGGGUUAUUGCUUGGAUUAGAAGAAUGUGAAUUUGAACGGUGAAGAGCACUGUGGUUGUGUGAAUUUUCUUGUGGAGAGUAACUGGUCCCACCAUCCCUCUCCAACAGAGGAUUGAGCAUCA
B7: chr1:37488339:37488340:+_ENSMUSG00000026111_ENSMUST00000027285|mus_mus|motif|central (ssRNA)
RNA: GGGAGUUCUACAGUCCGACGAUCGGCAGGGUCAUCUCUGGCCCACUGGUCCUUUGUUUGCUUCCGGUAGUGAAAGUUUCGGUAAACCCUCUGAGGAGAGGUAAACAGGUAGAGCAUCUGCCAUGCAGCAAACUCAAAGUCCAUCAACAGAGGAUUGAGCAUCA
B8: chr3:31621302:31621303:+_ENSG00000163527_ENST00000295770|hu_mus|FALSE|FALSE (ssRNA)
RNA: GGGAGUUCUACAGUCCGACGAUCUAAAAUCCAAUGAAUAAGGCCAGCUGUUAUCAUCAACCCUGGGUAAACGGUGCCACCCACUAUUCUUCCCAGUGGGUACCAUGCUCUUUCAUCAAACCAAUUUAGAAACUCAUAGAAUCCCAACAGAGGAUUGAGCAUCA
B9: chr16:17261293:17261294:+_ENSMUSG00000050240_ENSMUST00000090190|mus_hu|FALSE|FALSE (ssRNA)
RNA: GGGAGUUCUACAGUCCGACGAUCCUGAAGUUCUGCAAAGGAAUCACCUACUUUCACGAGUCACCUCACAGAUGCGGCUGCCCACAGCCCGGGAGGCCAUGCACACGGCCAGGCGCGUGAACAUUUCCCGUGCGGUACAGACUUCAACAGAGGAUUGAGCAUCA
B10: chr1:82457952:82457953:+_ENSG00000117114_ENST00000335786|hu_mus|FALSE|FALSE (ssRNA)
RNA: GGGAGUUCUACAGUCCGACGAUCAGCUUUGCUGAAACAAUUUACAUGUCAUUAGAACUUUACCAUAAAAUAAAUUAAUUACUAAAUAUAGCCAGAAGGAAUAUGGAAGAGUAAUAUUUCUGUUUUAUUUUAUUUUUAUUUUAUCAACAGAGGAUUGAGCAUCA
B11: chr19:36967278:36967279:+_ENSMUSG00000024811_ENSMUST00000025729|mus_hu|FALSE|FALSE (ssRNA)
RNA: GGGAGUUCUACAGUCCGACGAUCGAAUGUGAUACAGUACAAGUAAGACACUGAAGAUGGGUAUAAUAGUACUACUUGCACAAAAAGUUAAAUUUCACUUCAAAAAAAAAAAUCACAAGACAAAAGAAAAAGCAAUUCCAUCAUCAACAGAGGAUUGAGCAUCA
B12: chr17:64801638:64801639:+_ENSG00000154229_ENST00000413366|hu_mus|hu_hu_hu_mus_False|8_58 (ssRNA)
RNA: GGGAGUUCUACAGUCCGACGAUCUAUAUAUAUAUAUACAUAUGUACACAUAUAUAGUAAAACCCUAGUUAAACGUGUAAACUAGCCAUUCAUUUUUAAAAUUACAUCUACAUUAAAAAAUUAAUAUAUCUGAUACAGUGCCAGCAACAGAGGAUUGAGCAUCA
B13: chr16:45737064:45737065:-_ENSMUSG00000033157_ENSMUST00000066983|mus_hu|FALSE|FALSE (ssRNA)
RNA: GGGAGUUCUACAGUCCGACGAUCAAGCUGAUUAAACUUUGUCACUAAGGUAUCUGCAGCUGUAGCUACACCAAUAAGAGCCACGACCUUCUCUGGUCGUGCAAUUGCAGCAUGAAGCAUAAGCCACCCUCCAAGGCUAGAUCCCAACAGAGGAUUGAGCAUCA
B14: chr9:106791465:106791466:-_ENSMUSG00000032575_ENSMUST00000069036|mus_mus|FALSE|FALSE (ssRNA)
RNA: GGGAGUUCUACAGUCCGACGAUCUUUAGGCAUCAGUUCAUUUAUCUUCCGGAUAUAGUCAGACUUUUCUGCACAGCCUUUGCACAUCUCCCCCCAGUCGUCCAGGAUCUUCUUCAGCUCUUUCACCCGGAGCUUCUUCAGGUCCAACAGAGGAUUGAGCAUCA

The other results are listed elsewhere or left out.

The assay has as its target T1, UNK ZnF1-3 (human, UniProt Q9C0B0 31-174).
T1 sequence: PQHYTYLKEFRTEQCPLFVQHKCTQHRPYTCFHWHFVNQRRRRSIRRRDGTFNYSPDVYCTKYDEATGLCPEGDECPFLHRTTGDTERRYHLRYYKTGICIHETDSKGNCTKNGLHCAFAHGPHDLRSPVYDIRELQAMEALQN
Briefly: nsRBNS (natural sequence RNA bind-n-seq); RBNS binding buffer (assumed for nsRBNS): 25 mM Tris pH 7.5, 150 mM KCl, 3 mM MgCl2, 0.01% Triton X-100, 500 ug/ml BSA, 20 U/ml SUPERase-In, 4 C; UNK is unkempt and MSI1 is Musashi-1; names of the RNAs are library labels; protein concentration not given here; high values mean tight binding.
In turn, B1 returned a binding signal of 0.537 enrichment R.

As to B2, the binding signal stood at 1.09 enrichment R.

B3 came in with a binding signal of 0.755 enrichment R.

B4 showed a binding signal of 1.92 enrichment R.

Molecule B5 yielded a binding signal of 0.737 enrichment R.

The molecule B6 gave a binding signal of 1.38 enrichment R.

The molecule B7 had a binding signal of 1.24 enrichment R.

For the molecule B8, the binding signal worked out at 0.763 enrichment R.

B9 returned a binding signal of 0.74 enrichment R.

B10 gave a binding signal of 2.43 enrichment R.

Molecule B11 returned a binding signal of 1.54 enrichment R.

B12: the binding signal came out at 1.24 enrichment R.

For B13, the binding signal was 1 enrichment R.

Molecule B14 registered a binding signal of 0.552 enrichment R.

Values taken from paper PMC12136788.
